According to publication PMC5429092 (2017):

What was measured:
[1] = biological target: T1, biotinylated human PPP1R15A^533-624 (AviTag-PPP1R15A 533-624-MBP) (human, UniProt O75807 partial chain, biotin on a single lysine residue of the AviTag); test: BLI; Sephin1 50 uM
[2] = biological target: T1, biotinylated human PPP1R15A^533-624 …; test: BLI
[3] = biological target: biotinylated human PPP1R15A^(533-624)F592A (human, UniProt O75807 partial chain, F592A, biotin on the AviTag); test: BLI
[4] = biological target: biotinylated human PPP1R15A^(533-624)R578A (human, UniProt O75807 partial chain, R578A, biotin on the AviTag); test: BLI
[5] = biological target: biotinylated human PPP1R15A^(533-624)W582A (human, UniProt O75807 partial chain, W582A, biotin on the AviTag); test: BLI

B1: PP1 (PP1G […], full-length PP1 phosphatase catalytic subunit) (enzyme)
chain: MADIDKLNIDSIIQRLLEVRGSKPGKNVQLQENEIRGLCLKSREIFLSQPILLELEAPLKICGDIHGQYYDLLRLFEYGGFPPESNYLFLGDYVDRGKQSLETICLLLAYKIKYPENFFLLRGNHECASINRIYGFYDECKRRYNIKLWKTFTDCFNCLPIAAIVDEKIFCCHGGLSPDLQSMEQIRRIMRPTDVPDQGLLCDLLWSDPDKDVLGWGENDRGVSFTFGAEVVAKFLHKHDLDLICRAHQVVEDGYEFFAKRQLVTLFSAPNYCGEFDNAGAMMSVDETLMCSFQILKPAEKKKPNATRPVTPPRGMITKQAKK
- Kd [1]: 18.2 nM
- Kd [2]: 17 nM
- Kd [3]: 20.8 nM
- Kd [4]: 15.6 nM
- Kd [5]: 13.7 nM
